Measurements: the supplement of paper PMC10126150
Values marked as one replicate rest on one cluster of the flow cell; about a third of the high ones do not repeat.

System: ATP
Assay: switch fluorescence ratio, 500 uM ATP over buffer (Cy3 cluster intensity, sum of 5 cycles each) (fold (ratio)); higher = stronger signal-on switching upon ATP binding; sequences stand for … in TCGTCGGCAGCGTCAGATGTGTATAAGAGACAGTTTTTTTTTTTTTTTTTTTTTTTTT…TC
Conditions: aptamer strand: ATP DNA aptamer (quencher-CACCTGGGGGAGTATTGCGGAGGAAGG + anchor), 100 nM annealed; ATP concentration: 500 uM; one replicate
Method in brief: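 The fluorescence ratio divides summed target-cycle Cy3 intensity by summed buffer-cycle Cy3 intensity for each cluster and is averaged per switch-domain sequence. Cy3-labelled switching-strand clusters on a modified Illumina MiSeq flow-cell were annealed to 100 nM quencher-labelled ATP aptamer, then imaged in selection buffer and again after 15 min with 500 uM ATP at 22 °C. Five such cycles were run, with NaOH stripping and re-annealing between them, and clusters outside 100-1000 RFU were excluded.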
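Also: ATP exposure 15 min at 22 °C before imaging.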

Row | Sequence | switch fluorescence ratio
1 | TGGTAATAAA | 1.04
2 | TGGTAATGCC | 1.06
3 | TGGTACATTC | 1.06
4 | TGGTAGGGAG | 0.988
5 | TGGTAGTGTG | 0.983
6 | TGGTAGTTCT | 0.96
7 | TGGTATTTTC | 1
8 | TGGTCACGTG | 1.05
9 | TGGTCATCGG | 0.929
10 | TGGTCATGTA | 0.975
11 | TGGTCCAAC | 0.985
12 | TGGTCCAGCT | 1.04
13 | TGGTCCCGGT | 0.983
14 | TGGTCCTCCT | 0.941
15 | TGGTCGGTTT | 0.988
16 | TGGTCTGGGG | 1.02
17 | TGGTGAAGGA | 0.992
18 | TGGTGCAATT | 1.04
19 | TGGTGCGAA | 1.04
20 | TGGTGCTCAC | 1.01
21 | TGGTGCTCGG | 1.03
22 | TGGTGGGGA | 0.962
23 | TGGTGGTAGC | 1.03
24 | TGGTGTAGTT | 0.992
25 | TGGTTCAAGG | 1
26 | TGGTTCATGC | 1.01

Row | Sequence | switch fluorescence ratio
27 | TGGTTCCCTC | 0.962
28 | TGGTTCCGAC | 1.2
29 | TGGTTCCTTT | 0.967
30 | TGGTTCGATC | 1.02
31 | TGGTTGAAA | 0.967
32 | TGGTTGCCAG | 0.958
33 | TGGTTGCCCG | 0.941
34 | TGGTTGGC | 1.05
35 | TGGTTGGGG | 0.973
36 | TGGTTGTAAT | 0.983
37 | TGGTTGTATA | 0.974
38 | TGGTTTCACA | 1.04
39 | TGTAACGACA | 1.04
40 | TGTAAGTTCC | 1.08
41 | TGTAATATAA | 0.963
42 | TGTAATCTAG | 1.02
43 | TGTAATTTAG | 1.01
44 | TGTACCTGTG | 0.983
45 | TGTACTAAAG | 1.07
46 | TGTAGAAGAT | 0.993
47 | TGTAGACCAC | 1.05
48 | TGTAGCGCAG | 1.01
49 | TGTAGCGGCT | 1.02
50 | TGTAGCGGGT | 1.02
51 | TGTAGCTCAG | 1.16
52 | TGTAGGCTC | 1.01

Row | Sequence | switch fluorescence ratio
53 | TGTAGGTAAG | 1.01
54 | TGTAGTGCAG | 0.961
55 | TGTATAACAA | 1
56 | TGTATAGATA | 0.97
57 | TGTATAGGGA | 1.02
58 | TGTATATCAT | 0.994
59 | TGTATCACTG | 0.994
60 | TGTATCCCAA | 1.13
61 | TGTATGCGT | 0.97
62 | TGTATGGTC | 0.943
63 | TGTATGTTGG | 0.989
64 | TGTCAAAGA | 0.985
65 | TGTCAATCCG | 1.02
66 | TGTCAGGGAG | 0.956
67 | TGTCATATGT | 1.06
68 | TGTCCAAAGA | 1.02
69 | TGTCCAAATC | 1
70 | TGTCCAATG | 0.964
71 | TGTCCACTTA | 1.01
72 | TGTCGAACGG | 1.02
73 | TGTCGAATT | 0.989
74 | TGTCGTAAGC | 1
75 | TGTCGTACGA | 1
76 | TGTCGTATCC | 0.995
77 | TGTCTGAACT | 0.992
78 | TGTCTGAC | 1.32

Row | Sequence | switch fluorescence ratio
79 | TGTCTGACTT | 0.996
80 | TGTCTGAGTG | 0.965
81 | TGTCTGGAAT | 1.06
82 | TGTCTGGCGG | 1.19
83 | TGTCTTAAGT | 0.977
84 | TGTGAAATAA | 1.01
85 | TGTGAACTTA | 0.991
86 | TGTGACACGG | 1
87 | TGTGACGAGA | 1.05
88 | TGTGACGTGT | 1.02
89 | TGTGAGGAAC | 1
90 | TGTGAGTCTA | 0.947
91 | TGTGAGTTAA | 1
92 | TGTGATAAAG | 0.996
93 | TGTGATATGG | 1
94 | TGTGATTAAG | 1.04
95 | TGTGCATTTT | 1.03
96 | TGTGCCTTTT | 0.981
97 | TGTGCGTGTG | 0.975
98 | TGTGCGTTA | 1.02
99 | TGTGCTGCGA | 1.04
100 | TGTGGACGTG | 1.02
101 | TGTGGAGACT | 0.976
